Results from PubChem BioAssay AID686979 (National Center for Advancing Translational Sciences (NCATS), 2013).
The whole screen tested about 420,000 compounds, of which about 50,000 (12%) were called active. The inconclusive results got no clear call from the source; some entries with a clear call stand among them for comparison. The call rests on the fitted dose curve; in most records, active means well fitted inhibition curve with a large enough effect; inconclusive means small, poorly fitted or top-dose-only effect; inactive means flat fitted curve, though single readings scatter. No potency is given beside an inconclusive call; the fits are too rough.

Experiment: qHTS for Inhibitors of human tyrosyl-DNA phosphodiesterase 1 (TDP1): qHTS in cells in presence of CPT; further: nearly all actives have a fitted effect of over 55% in size
Conditions: chicken DT40 Tdp1-/-;hTDP1 cells + 20 nM CPT, ATP luminescence, 48 h; activity change, negative = growth inhibition: at 46.2 µM (top of the series) unless noted
Summary of the method: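 Chicken DT40 Tdp1-/- cells stably complemented with human TDP1 were seeded at 400 cells/well in medium containing 20 nM camptothecin, exposed to pin-transferred compounds, and grown at 37 °C for at least 48 hr. Viability was read as ATP luminescence.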
On the % scale 0 is the no-effect control and ±100 the full control effect; potency means the concentration at half of the fitted maximal effect; tags describe the fitted curve by direction and shape.

SMILES	Potency	activity change, negative = growth inhibition
NC(=S)Nc1cccc2cccnc12	inactive	
COc1ccc(CN2C[C@@H](CO)O[C@@H](n3cnc4c(NCCN(C)C)ncnc43)C2)cc1		inconclusive: -35.4% [inhibitor]
Cc1ccc(C(=O)OCC(=O)NC(=O)c2ccccc2)o1		inconclusive: -33.7% [inhibitor]
Cc1cccc(C(=O)OCC(=O)N(CC(C)C)c2c(N)n(Cc3ccccc3)c(=O)[nH]c2=O)c1C	inconclusive [inhibitor, full curve, poor fit]	
COCCNC(=O)CSCc1cc(C)cc(C)c1	inactive	
O=S1(=O)CC(N2CCSCC2)CN1Cc1cn(Cc2cccc(Cl)c2)nn1 (stereo unspecified)	inactive	
CC(C)(C)c1ccc(S(=O)(=O)Nc2ccc3c(c2)COC3=O)cc1		inconclusive: -30.5% [inhibitor]
CC(=O)c1ccc(N2CCN(S(=O)(=O)c3c(C(=O)N4CCCC4)c(C)n(C)c3C)CC2)cc1	inactive	
CCCn1c(=O)c(C)cn2nc(N)nc12	inactive	
CCOc1ccc(C)cc1S(=O)(=O)NC1CCCCC1		inconclusive: -30.6% [inhibitor]
CCOc1ccc(/C=C/c2nc(C#N)c(Nc3ccc(OCC)cc3)o2)cc1	active: 23.1 µM	
COC(=O)c1c(C)nn(-c2ccc(F)c(Cl)c2)c1-c1cc(C)on1	active: 11.6 µM	
Cc1ccc(OCc2n[nH]c(=S)n2-c2ccccc2)cc1C	inconclusive [inhibitor, single point]	
CCN(CC)c1ccc(/C=C2\C=Cc3ccccc32)cc1	inconclusive [inhibitor, single point]	
COc1cccc(NC(=O)CN(C)C(=O)c2ccc3ccccc3c2)c1	inactive	
CC(C)CC1Nc2ccc(C(=O)NCc3ccc4c(c3)OCO4)cc2NC1=O (stereo unspecified)	inconclusive [inhibitor, single point]	
COc1ccc(OC)c(S(=O)(=O)N2CCC3(CC2)OCCN3S(=O)(=O)c2ccccc2)c1	inconclusive [inhibitor, partial curve, poor fit]	
Cc1nc2ccn(Cc3ccccc3)c(=O)c2cc1C(=O)NCc1ccccc1F	inconclusive [inhibitor, single point]	
C=CC(=O)Nc1cccc(Oc2ncnc3[nH]cc(-c4cnc5ccccc5c4)c23)c1	inconclusive [inhibitor, single point]	
COc1ccccc1C(=O)NC(CCSC)C(=O)N1CCN(C/C=C/c2ccccc2)CC1 (stereo unspecified)	inconclusive [inhibitor, single point]	
O=c1cc(CN2CC(O)Cc3ccc4ccccc4c32)nc2sccn12 (stereo unspecified)	inconclusive [inhibitor, single point]	
